Assay [1] relates to U937 human histiocytic leukemia cell line. Nature of the assay: Inhibition of TSQ induced necroptosis, 384 well plate format (CellTitre-Glo). The following applies: Homo sapiens, U-937; U937 cells, TSQ cocktail (TNF, Smac mimetic, Q-VD-OPh), CelltiterGlo; read-out: Inhibition of TSQ-induced necroptosis (IC50 cell-based assay). The method, boiled down: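 IC50 is the inflection point of 4-parameter logistic curves of percent viability, measured as ATP by CellTiter-Glo after 48 h at 37 °C. Cells were U937 at 20,000 per well, given TNF-Fc (100 ng/ml)/Smac mimetic (500 nM)/Q-VD-OPh (10 μM). Compound was tested at 36 μM down in ten 3-fold steps, 0.3% DMSO.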
For orientation: ATP-based viability assays read luminescence as a measure of living cells.

For another assay, the target named is T1, RIP3 (Homo sapiens, UniProt Q9Y572).
T1 construct: purchased DiscoverX (KINOMEscan service); host or cells: E. coli BL21-derived (T7 phage) or HEK293
The experiment in a line: KINOMEscan binding assay, RIP3. Conditions: equilibrium dissociation constant, class symbols. From the text:
The Hill Slope was set to −1.

For a further assay, the system named is U937 cells. The experiment in a line: Counter screen: cell viability without the TSQ cocktail (CelltiterGlo). The arrangement: species or system human. The following applies: Homo sapiens, U-937, cell viability by CelltiterGlo, read-out: Off-target effect (IC50 cell-based assay). How it is done: Counter screen: In parallel, all compounds were tested for their ability to affect cell viability. The same U937 cells were treated with compound in DMSO without the TSQ cocktail. This counter screen enabled evaluation of off-target effects. In this case, cell viability was measured by CelltiterGlo.

The target of another assay is T2, RIP1 (Homo sapiens, UniProt Q13546).
T2 construct: purchased DiscoverX (KINOMEscan service); host or cells: E. coli BL21-derived (T7 phage) or HEK293
T2 sequence (Q13546 1-671): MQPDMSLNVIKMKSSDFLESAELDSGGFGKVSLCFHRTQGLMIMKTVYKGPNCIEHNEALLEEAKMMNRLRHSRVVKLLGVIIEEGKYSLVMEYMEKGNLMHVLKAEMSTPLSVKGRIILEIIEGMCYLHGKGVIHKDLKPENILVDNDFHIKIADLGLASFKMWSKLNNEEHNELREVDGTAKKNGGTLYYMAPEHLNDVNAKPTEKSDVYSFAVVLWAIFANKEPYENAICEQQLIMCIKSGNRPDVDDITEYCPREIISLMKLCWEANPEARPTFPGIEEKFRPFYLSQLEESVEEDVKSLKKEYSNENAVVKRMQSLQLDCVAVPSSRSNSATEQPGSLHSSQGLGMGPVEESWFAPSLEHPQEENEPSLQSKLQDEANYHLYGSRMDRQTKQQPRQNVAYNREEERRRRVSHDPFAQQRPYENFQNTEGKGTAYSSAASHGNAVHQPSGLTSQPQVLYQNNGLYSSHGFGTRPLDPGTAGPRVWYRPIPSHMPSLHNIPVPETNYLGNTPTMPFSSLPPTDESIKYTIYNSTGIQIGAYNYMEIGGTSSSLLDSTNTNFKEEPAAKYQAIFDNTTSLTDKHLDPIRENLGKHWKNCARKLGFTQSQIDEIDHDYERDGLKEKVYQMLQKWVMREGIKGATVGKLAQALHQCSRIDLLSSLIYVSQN
Nature of the assay: KINOMEscan binding assay, RIP1. The following applies: equilibrium dissociation constant, class symbols.

The source of these data is patent US12583836B2 (Anaxis Pharma Pty Ltd, priority 2020, dated 2026).

The IC50 is the point on the concentration scale where inhibition reaches its midpoint. A word on the Kd: it is the free concentration of one partner at which half of the binding sites on the other are occupied at equilibrium, for simple one-to-one binding. Lower therefore signals a tighter complex.

T1 sequence (Q9Y572 whole entry): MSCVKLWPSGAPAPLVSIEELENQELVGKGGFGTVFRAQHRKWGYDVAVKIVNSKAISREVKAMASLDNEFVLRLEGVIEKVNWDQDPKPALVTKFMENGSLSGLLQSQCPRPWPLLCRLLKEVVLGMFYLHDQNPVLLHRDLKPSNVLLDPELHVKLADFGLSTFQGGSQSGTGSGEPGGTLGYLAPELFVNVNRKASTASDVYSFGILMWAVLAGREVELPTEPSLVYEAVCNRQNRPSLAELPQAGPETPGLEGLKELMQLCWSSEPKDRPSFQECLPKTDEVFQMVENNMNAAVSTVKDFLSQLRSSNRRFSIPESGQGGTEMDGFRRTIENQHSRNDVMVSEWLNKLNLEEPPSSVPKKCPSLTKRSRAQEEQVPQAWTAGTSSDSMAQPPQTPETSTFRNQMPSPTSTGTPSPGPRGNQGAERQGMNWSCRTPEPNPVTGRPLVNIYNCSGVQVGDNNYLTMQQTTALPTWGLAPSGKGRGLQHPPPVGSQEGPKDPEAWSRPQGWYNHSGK

On to `CCS(=O)(=O)Nc1ccc(-c2n[nH]c(Nc3cccc(OCCOC)n3)c2C(N)=O)cc1` [Compound 128, 3-(4-(ethylsulfonamido)phenyl)-5-((6-(2-methoxyethoxy)pyridin-2-yl)amino)-1H-pyrazole-4-carboxamide], for which the IC50 in assay [1] is 1 to 30 µM; in the assay with U937 cells it was more than 30 µM. In addition, the Kd is 1 to 30 µM at RIP3 and more than 30 µM on RIP1.

For `NC(=O)c1c(-c2ccc(NS(=O)(=O)CC(F)(F)F)cc2OCc2ccc(F)cc2)n[nH]c1Nc1cccc(C(F)(F)F)n1` [Compound 140, 3-(2-((4-fluorobenzyl)oxy)-4-((2,2,2-trifluoroethyl)sulfonamido)phenyl)-5-((6-(trifluoromethyl)pyridine-2-yl)amino)-1H-pyrazole-4-carboxamide], the IC50 in assay [1] was 0.01 to 1 µM; with U937 cells it was 1 to 30 µM. In addition, the Kd on RIP3 and at RIP1 was more than 30 µM throughout.

Consider `NC(=O)c1c(-c2ccc(NS(=O)(=O)CC(F)(F)F)c(OC3(c4ccc(F)cc4)CC3)c2)n[nH]c1Nc1cnccn1` [Compound 144, 3-(3-(1-(4-fluorophenyl)cyclopropoxy)-4-((2,2,2-trifluoroethyl)sulfonamido)phenyl)-5-(pyrazin-2-ylamino)-1H-pyrazole-4-carboxamide], for which the figures for the IC50 (in assay [1]; in the assay on U937 cells) were 0.01 to 1 µM and more than 30 µM, respectively. The Kd at RIP3 and on RIP1 was more than 30 µM each time.

Regarding `CCS(=O)(=O)Nc1ccc(-c2n[nH]c(Nc3cnccn3)c2C(N)=O)cc1OC1(c2ccccc2)CC1` [Compound 152, 3-(4-(ethylsulfonamido)-3-(1-phenylcyclopropoxy)phenyl)-5-(pyrazin-2-ylamino)-1H-pyrazole-4-carboxamide], the results for the IC50 (in assay [1]; in the assay with U937 cells) were 0.01 to 1 µM and more than 30 µM, respectively. Also, the Kd at RIP3 and at RIP1 was more than 30 µM each time.

`Cc1cnc(Nc2[nH]nc(-c3ccc(NS(=O)(=O)CC(F)(F)F)c(OCc4ccc(Cl)cc4)c3)c2C(N)=O)cn1` [Compound 162, 3-(3-((4-chlorobenzyl)oxy)-4-((2,2,2-trifluoroethyl)sulfonamido)phenyl)-5-((5-methylpyrazin-2-yl)amino)-1H-pyrazole-4-carboxamide]: the half-inhibitory concentration (IC50) is 0.01 to 1 µM in assay [1] and more than 30 µM with U937 cells. In addition, the Kd on RIP3 and on RIP1 was more than 30 µM in each case.

On to `C[C@H](Oc1cc(-c2n[nH]c(Nc3cnccn3)c2C(N)=O)ccc1NS(=O)(=O)CC(F)(F)F)c1ccc(F)cc1` [Compound 164, (S)-3-(3-(1-(4-fluorophenyl)ethoxy)-4-((2,2,2-trifluoroethyl)sulfonamido)phenyl)-5-(pyrazin-2-ylamino)-1H-pyrazole-4-carboxamide], for which the values for the IC50 (in assay [1]; in the assay on U937 cells) were less than 0.01 µM and more than 30 µM, respectively. Also, the Kd on RIP3 and at RIP1 was more than 30 µM throughout.

Consider `NC(=O)c1c(-c2ccc(NS(=O)(=O)C3CC3)c(OCc3ccc(F)cc3)c2)n[nH]c1Nc1cnccn1` [Compound 169, 3-(4-(cyclopropanesulfonamido)-3-((4-fluorobenzyl)oxy)phenyl)-5-(pyrazin-2-ylamino)-1H-pyrazole-4-carboxamide], for which the IC50 is 0.01 to 1 µM in assay [1] and more than 30 µM with U937 cells. Besides, the Kd at RIP3 and at RIP1 was more than 30 µM throughout.

On to `CCS(=O)(=O)Nc1ccc(-c2n[nH]c(Nc3cnccn3)c2C(N)=O)cc1OCc1ccc(F)cc1C` [Compound 171, 3-(4-(ethylsulfonamido)-3-((4-fluoro-2-methylbenzyl)oxy)phenyl)-5-(pyrazin-2-ylamino)-1H-pyrazole-4-carboxamide], for which the concentration for half-maximal inhibition (IC50) was 0.01 to 1 µM in assay [1] and more than 30 µM in the assay with U937 cells. The Kd at RIP3 and on RIP1 was more than 30 µM in each case.

Take `CCS(=O)(=O)Nc1ccc(-c2n[nH]c(Nc3cnccn3)c2C(N)=O)cc1O[C@@H](C)c1ccc(F)cc1` [Compound 199, (S)-3-(4-(ethylsulfonamido)-3-(1-(4-fluorophenyl)ethoxy)phenyl)-5-(pyrazin-2-ylamino)-1H-pyrazole-4-carboxamide]: the IC50 is 0.01 to 1 µM in assay [1] and more than 30 µM in the assay with U937 cells. Further, the Kd on RIP3 and on RIP1 was more than 30 µM in each case.

Regarding `CCS(=O)(=O)Nc1ccc(-c2n[nH]c(Nc3cnccn3)c2C(N)=O)c(OCc2cccc(F)c2)c1` [Compound 208, 3-(4-(ethylsulfonamido)-2-((3-fluorobenzyl)oxy)phenyl)-5-(pyrazin-2-ylamino)-1H-pyrazole-4-carboxamide], the half-inhibitory concentration (IC50) in assay [1] was 1 to 30 µM; with U937 cells, more than 30 µM. Further, the Kd at RIP3 and at RIP1 was more than 30 µM each time.

Regarding `C[C@H](Oc1cc(-c2n[nH]c(Nc3cccc(C(F)(F)F)n3)c2C(N)=O)ccc1NS(=O)(=O)C(F)F)c1ccc(F)cc1` [Compound 229, 3-[4-(difluoromethanesulfonamido)-3-[(1S)-1-(4-fluorophenyl)ethoxy]phenyl]-5-{[6-(trifluoromethyl)pyridin-2-yl]amino}-1H-pyrazole-4-carboxamide], the half-maximal inhibitory concentration (IC50) is 0.01 to 1 µM in assay [1] and more than 30 µM with U937 cells. The Kd at RIP3 and on RIP1 was more than 30 µM in each case.

Consider `NC(=O)c1c(-c2ccc(NS(=O)(=O)C(F)F)c(OCc3ccc(Cl)cc3)c2)n[nH]c1Nc1cnc(C(F)(F)F)cn1` [Compound 235, 3-(3-((4-chlorobenzyl)oxy)-4-((difluoromethyl)sulfonamido)phenyl)-5-((5-(trifluoromethyl)pyrazin-2-yl)amino)-1H-pyrazole-4-carboxamide], for which the IC50 in assay [1] is 0.01 to 1 µM; in the assay with U937 cells it was more than 30 µM. In addition, the Kd at RIP3 and at RIP1 was more than 30 µM in each case.

For the compound `C[C@H](Oc1cc(-c2n[nH]c(Nc3cccc(C(F)(F)F)n3)c2C(N)=O)ccc1NS(=O)(=O)CC(F)(F)F)c1ccc(F)cc1` [Compound 249, 3-{3-[(1S)-1-(4-fluorophenyl)ethoxy]-4-(2,2,2-trifluoroethane-sulfonamido)phenyl}-5-{[6-(trifluoromethyl)pyridin-2-yl]amino}-1H-pyrazole-4-carboxamide], the IC50 in assay [1] is 1 to 30 µM; with U937 cells it was more than 30 µM. For the same compound, the Kd at RIP3 and on RIP1 was more than 30 µM throughout.

Turning to `NC(=O)c1c(-c2ccc(NS(=O)(=O)CC(F)(F)F)c(OCc3ccc(Cl)cn3)c2)n[nH]c1Nc1cnccn1` [Compound 262, 3-{3-[(5-chloropyridin-2-yl)methoxy]-4-(2,2,2-trifluoroethane-sulfonamido)phenyl}-5-[(pyrazin-2-yl)amino]-1H-pyrazole-4-carboxamide], the figures for the IC50 (in assay [1]; with U937 cells) were 0.01 to 1 µM and more than 30 µM, respectively. The Kd on RIP3 and on RIP1 was more than 30 µM throughout.

For the compound `NC(=O)c1c(-c2ccc(NS(=O)(=O)CC(F)(F)F)c(OC(c3ccc(F)cc3)C3CCC3)c2)n[nH]c1Nc1cnccn1` (stereo not drawn) [Compound 266, 3-{3-[cyclobutyl(4-fluorophenyl)methoxy]-4-(2,2,2-trifluoroethanesulfonamido)phenyl}-5-[(pyrazin-2-yl)amino]-1H-pyrazole-4-carboxamide], the values for the IC50 (in assay [1]; in the assay with U937 cells) were 1 to 30 µM and more than 30 µM, respectively. The Kd on RIP3 and at RIP1 was more than 30 µM throughout.
